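Test compounds were applied to cells in 96-well plates for 48 hours at 5 doses. GI50: concentration for 50% inhibition of growth.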 Some entries of the source have several records that differ or are many. This is not the full list of results. There may be further records. Records of one sample usually come from different ranges of test concentrations, which the source does not state; a value can be the end of its range.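 TGI marks complete inhibition of growth.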 *1 amine or outer side, *2 acyl side, *3 side chain or, on linkers, in order; H or OH if unused. Where a SMILES comes first, the peptide text is derived from it. Bridges are numbered along the chain shown (N, C = ends). Roman numbers before positions name the chains, in order. [ ]: non-standard residue; d: D form. Actinocin(9to1) = Cc1c2oc3c(C)ccc(C(=O)[*:1])c3nc-2c(C(=O)[*:2])c(N)c1=O; aThr = C[C@H](O)[C@H](N)C(=O)O; NMeV = CN[C@H](C(=O)O)C(C)C; Sar = CNCC(=O)O
Test system: MDA-MB-468 breast
Test: growth of human tumour cells (NCI), 48 h

| Compound | GI50 | TGI |
| --- | --- | --- |
| O=C(Nc1cccc(-n2ccc3c(NC(=O)c4ccccc4)nccc32)c1)c1ccc(Cl)c(C(F)(F)F)c1 | 16.3 µM [1 test] and 91.4 nM [mean of 2 tests] | 50.8 µM [1 test] and 515 nM [mean of 2 tests] |
| Cc1c2oc3c(C)ccc(C(=O)N[C@@H]4C(=O)N[C@H](C(C)C)C(=O)N5CCC[C@H]5C(=O)N(C)CC(=O)N(C)[C@@H](C(C)C)C(=O)O[C@H]4C)c3nc-2c(C(=O)N[C@@H]2C(=O)N[C@H](C(C)C)C(=O)N3CCC[C@H]3C(=O)N(C)CC(=O)N(C)[C@@H](C(C)C)C(=O)O[C@H]2C)c(N)c1=O (I: [aThr][dV]P[Sar][NMeV] / II: [aThr][dV]P[Sar][NMeV]; ester I:1-I:C, II:1-II:C; linker I:N-II:N via Actinocin(9to1)) | 6.8 nM [1 test] and 0.542 nM [mean of 4 tests] |  |

— PubChem BioAssay (NCI)
